Data reported in the supplement of paper PMC2702839.
Structures can show the parent of a compound that is named as a salt. The list shows a part of the results.

The compounds below were run on Schistosoma mansoni schistosomula (assay: phenotypic hit in primary schistosomula screen (any phenotype vs DMSO control) (binary (1 = hit, 0 = no phenotype)); higher = active (phenotype induced)). Settings: 1 µM; time (d): 7.

Row | Compound | phenotypic hit
1 | O=C1CCCN1CC#CCN1CCCC1 [oxotremorine] | inactive: 0
2 | CO[C@@H]1C[C@@H](C[C@H]2CC[C@H](C)[C@H]([C@@H](C)C(=O)O)O2)O[C@]2(O[C@](C)([C@H]3CC[C@@](C)([C@@H]4O[C@@H]([C@H]5O[C@@](O)(CO)[C@H](C)C[C@@H]5C)C[C@@H]4C)O3)C[C@H]2C)[C@@H]1C [nigericin sodium] | active: 1
3 | COC1C(O)C(O[C@H]2CC[C@]3(C=O)C4C(CC[C@]3(O)C2)[C@@]2(O)CC[C@H](C3=CC(=O)OC3)[C@@]2(C)C[C@H]4OC(C)=O)OC(C)C1OC(C)=O (stereo not given in full) [sarmentoside b] | inactive: 0
4 | CCOP(=S)(OCC)SCCSCC [disulfoton] | inactive: 0
5 | c1cncc(C2=NCCC2)c1 [myosmine] | inactive: 0
6 | O=[N+]([O-])c1cc([As](=O)(O)O)ccc1O [roxarsone] | inactive: 0
7 | CC(=O)C1CCC2C3CCC4C[C@H](O)CCC4(C)C3C[C@H](O)C12C (stereo partly drawn) [dihydroxy (3alpha,12alpha)pregnan-20-one] | inactive: 0
8 | CCc1cccc(CC)c1N(COC)C(=O)CCl [alachlor] | inactive: 0
9 | C[C@]12C=CC(=O)C=C1CC[C@@H]1[C@@H]2CC[C@]2(C)C(=O)CC[C@@H]12 [androsta-1,4-dien-3,17-dione] | inactive: 0
10 | CCN1C[C@]2(COC)[C@H](O)C[C@H](OC)[C@@]34[C@@H]5C[C@@]6(O)[C@H](OC(=O)c7ccccc7)[C@@H]5[C@@](OC(C)=O)([C@@H]([C@H](OC)[C@H]23)[C@@H]14)[C@@H](O)[C@@H]6OC [aconitine] | inactive: 0
11 | CC(=O)CC1CCCCN1 (stereo not given) [pelletierine hydrochloride] | inactive: 0
12 | CC[C@@]1(O)C[C@H](O[C@H]2C[C@H](N(C)C)[C@H](O)[C@H](C)O2)c2c(cc3c(c2O)C(=O)c2c(O)ccc(O)c2C3=O)[C@H]1C(=O)OC [pyrromycin] | active: 1
13 | NCCc1ccc(O)cc1 [4-Hydroxyphenethylamine hydrochloride] | inactive: 0
14 | C[C@]12CC[C@H](O)C[C@@H]1CC[C@@H]1[C@@H]2CC[C@]2(C)C(=O)CC[C@@H]12 [epiandrosterone] | inactive: 0
15 | C[N+]1(C)[C@@H]2C[C@@H](OC(=O)[C@H](CO)c3ccccc3)C[C@H]1[C@@H]1O[C@@H]12 [methscopolamine bromide] | inactive: 0
16 | CCn1cc(C(=O)O)c(=O)c2cc3c(cc21)OCO3 [oxolinic acid] | inactive: 0
17 | CO[C@H]1C[C@H](O[C@H]2CC[C@]3(C=O)[C@H]4CC[C@]5(C)[C@@H](C6=CC(=O)OC6)CC[C@]5(O)[C@@H]4CC[C@]3(O)C2)O[C@H](C)[C@H]1O [cymarin] | inactive: 0
18 | C[C@@H](N)[C@@H](O)c1ccccc1 [1r,2s-phenylpropylamine] | inactive: 0
19 | COc1cc2c(cc1OC)[C@@H]1C(=O)c3ccc(O)c(CC=C(C)C)c3O[C@@H]1CO2 [rotenonic acid] | inactive: 0
20 | C[C@@H]1O[C@@H](O[C@H]2C[C@@H](O)[C@]3(CO)[C@H]4[C@H](O)C[C@]5(C)[C@@H](C6=CC(=O)OC6)CC[C@]5(O)[C@@H]4CC[C@]3(O)C2)[C@H](O)[C@H](O)[C@H]1O [ouabain] | inactive: 0

Row | Compound | phenotypic hit
21 | COc1ccc2c3c([nH]c2c1)C(C)=NCC3 [harmaline] | inactive: 0
22 | CC1(C)C2C[C@@H](O)[C@]3(C)C(CC[C@@]4(C)[C@H](c5ccoc5)OC(=O)[C@H]5O[C@]543)[C@@]2(C)[C@@H](O)C[C@H]1O (stereo not given in full) [tridesacetoxykhivorin] | inactive: 0
23 | [N-]=[N+]=CC(=O)OC[C@H](N)C(=O)O [azaserine] | inactive: 0
24 | NCC(O)c1ccc(O)cc1 (racemic) [(±)-Octopamine hydrochloride] | inactive: 0
25 | C=C1[C@@H](C)[C@H]2[C@H](Cc3ccccc3)NC(=O)[C@]23OC(=O)/C=C/[C@H](O)CCC[C@@H](C)C/C=C/[C@H]3[C@@H]1O [cytochalasin b] | inactive: 0
26 | ClC1=C(Cl)C2(Cl)C3C4C=CC(C4)C3C1(Cl)C2(Cl)Cl (stereo not given) [aldrin] | inactive: 0
27 | COC(=O)COc1cc(Cl)c(Cl)cc1Cl [2,4,5-trichlorophenoxyacetic acid, methyl ester] | inactive: 0
28 | C[C@]12CCC3C(CC[C@H]4C[C@H](O)CC[C@]34C)C1CC[C@@H]2O (stereo not given in full) [epiandrostanediol] | inactive: 0
29 | C[C@@H](CO)NC(=O)[C@@H]1C=C2c3cccc4[nH]cc(c34)C[C@H]2N(C)C1 [ergonovine maleate] | active: 1
30 | Clc1ccc(C(OCCN2CCCCC2)c2ccccc2)cc1 (stereo not given) [cloperastine hydrochloride] | inactive: 0
31 | CCCSP(=O)(OCC)SCCC [ethoprop] | inactive: 0
32 | NCCc1c[nH]c2ccccc12 [Tryptamine hydrochloride] | inactive: 0
33 | C[C@]12CC[C@H](O)C[C@H]1CC[C@@H]1[C@@H]2C[C@@H](O)[C@]2(C)[C@@H](C3=CC(=O)OC3)CC[C@]12O [digoxigenin] | inactive: 0
34 | Cc1cccc(C)c1NC1=NCCCS1 [Xylazine hydrochloride] | active: 1
35 | C[C@]12CC[C@H](Cl)C[C@@H]1CC[C@@H]1[C@@H]2CC[C@]2(C)C(=O)CC[C@@H]12 [3beta-chloroandrostanone] | inactive: 0
36 | C[C@]12CCC(=O)C=C1CCc1ccc(O)cc12 [12-hydroxy-4,4-bisnor-4,8,11,13-podocarpatetraen-3-one] | inactive: 0
37 | C=C1[C@@H]2CCC3[C@@](CC[C@@H]4[C@H](C(=O)O)C[C@@H](O[C@@H]5O[C@H](CO)[C@@H](OS(=O)(=O)O)[C@H](OS(=O)(=O)O)[C@H]5OC(=O)CC(C)C)C[C@@]34C)(C2)[C@@H]1O (stereo not given in full) [atractyloside potassium] | inactive: 0
38 | CC(=O)OCC1=C(C(=O)O)N2C(=O)[C@@H](NC(=O)CCC[C@@H](N)C(=O)O)[C@H]2SC1 [cephalosporin c sodium] | inactive: 0
39 | COc1c2c(cc3c1OCO3)CC[N+](C)=C2 [cotarnine chloride] | inactive: 0
40 | Cn1c(=O)c2c(ncn2CCCl)n(C)c1=O [7-(beta-Chloroethyl)theophylline] | inactive: 0

Row | Compound | phenotypic hit
41 | CNC(=O)Oc1cccc2c1OC(C)(C)O2 [bendiocarb] | inactive: 0
42 | CC(=O)OC1CCC23C(=O)OC45CCC(C6=CC(=O)OC6)C4(C)CCC2C5CCC3(O)C1 (stereo not given) [strophanthidinic acid lactone acetate] | inactive: 0
43 | CCCCN(CC)c1c([N+](=O)[O-])cc(C(F)(F)F)cc1[N+](=O)[O-] [benfluralin] | inactive: 0
44 | NC(=O)CN1CCCC1=O [piracetam] | inactive: 0
45 | CC1(C)C(O)CC(O)C2(C)C1CC(O)C1(C)C2CCC2(C)C(c3ccoc3)CC3OC321 (stereo not given) [havanensin] | inactive: 0
46 | CC(=O)Oc1ccc(Cl)c2cccnc12 [chloroacetoxyquinoline] | inactive: 0
47 | C=C(C)[C@@H]1[C@H]2OC(=O)[C@@H]1[C@]1(O)C[C@H]3O[C@]34C(=O)O[C@H]2[C@]14C [picrotoxinin] | inactive: 0
48 | Oc1ccc(Cl)cc1 [parachlorophenol] | inactive: 0
49 | CC1C[C@H]2CC(=O)[C@H]3CCCN4CCC[C@H]2[C@]34C1.[O-][Cl+3]([O-])([O-])O (stereo not given in full) [lycopodine perchlorate] | inactive: 0
50 | COc1cc([C@@H]2c3cc4c(c(O)c3C[C@H]3COC(=O)[C@@H]32)OCO4)cc(OC)c1OC [beta-peltatin] | inactive: 0
51 | CC(=O)c1c(O)c(C)c(O)c2c1oc1c(C(C)=O)c(O)c(C)c(O)c12 [diacetyldideisovaleryl-rhodomyrtoxin] | inactive: 0
52 | C[C@]12CC[C@H](O)C[C@H]1CC[C@@H]1[C@@H]2[C@H](O)C[C@]2(C)[C@@H](C3=CC(=O)OC3)CC[C@]12O [sarmentogenin] | inactive: 0
53 | COc1cc2c(cc1OC)[C@@H]1C(=O)c3ccc4oc(C(C)C)cc4c3O[C@@H]1CO2 [isorotenone] | active: 1
54 | C[N+]12CCC(CC1)C(OC(=O)C(O)(c1ccccc1)c1ccccc1)C2 (stereo not given) [clidinium bromide] | inactive: 0
55 | COC[C@]12CN(C=O)[C@@H]3[C@@H]4[C@H](OC)[C@H]1[C@@]3([C@@H](OC)C[C@H]2O)[C@@H]1C[C@@]2(O)[C@H](OC(=O)c3ccccc3)[C@@H]1[C@]4(OC(C)=O)[C@@H](O)[C@@H]2OC [oxonitine] | inactive: 0
56 | CC(C)=CCCC1(C)C=Cc2c(O)c3c(c(CC=C(C)C)c2O1)OC12C(=CC4CC1C(C)(C)OC2(C/C=C(/C)C(=O)O)C4O)C3=O (stereo not given) [dihydrogambogic acid] | active: 1
57 | C[C@H]1C(=O)O[C@@H]2CCN3CC=C(COC(=O)[C@](C)(O)[C@]1(C)O)[C@H]23 [monocrotaline] | inactive: 0
58 | CO[C@]12C[C@@H](COC(=O)c3cncc(Br)c3)CN(C)[C@@H]1Cc1cn(C)c3cccc2c13 [nicergoline] | inactive: 0
59 | C/C=C(/C)C(=O)O[C@H]1CC[C@@]2(C)[C@@H]3CC[C@H]4[C@]5(O)C[C@H](O)[C@@]6(O)[C@@H](CN7C[C@@H](C)CC[C@H]7[C@@]6(C)O)[C@]5(O)C[C@]42O[C@]13O [veratrine] | inactive: 0
60 | O=C(O)COc1cc(Cl)c(Cl)cc1Cl [2,4,5-trichlorophenoxyacetic acid] | inactive: 0
